Results: patent US20240392031A1 (BICARA THERAPEUTICS, published 2024)

B1: BCA321.16, anti-hCAIX hIL-12 fusion protein (hIL-12p40 variant H: K217 + L218 substituted with I) (other)
heavy 1: EVRLVESGGGLVKPGGSLRLSCAASGFTFSNYYMSWIRQAPEKRLELVSAINSDGGITYYLDTVKGRFTISRDNAKNSLYLQMNSLRAEDTALFYCARHRSGYFSMDYWGQGTSVTVSS[human IgG1 constant region with changes left out here]GGGGSGGGGSGGGGSIWELKKDVYVVELDWYPDAPGEMVVLTCDTPEEDGITWTLDQSSEVLGSGKTLTIQVKEFGDAGQYTCHKGGEVLSHSLLLLHKKEDGIWSTDILKDQKEPKNKTFLRCEAKNYSGRFTCWWLTTISTDLTFSVKSSRGSSDPQGVTCGAATLSAERVRGDNKEYEYSVECQEDSACPAAEESLPIEVMVDAVHIKYENYTSSFFIRDIIKPDPPKNLQLKPLKNSRQVEVSWEYPDTWSTPHSYFSLTFCVQVQGKSKREKKDRVFTDKTSATVICRKNASISVRAQDRYYSSSWSEWASVPCS
heavy 2: EVRLVESGGGLVKPGGSLRLSCAASGFTFSNYYMSWIRQAPEKRLELVSAINSDGGITYYLDTVKGRFTISRDNAKNSLYLQMNSLRAEDTALFYCARHRSGYFSMDYWGQGTSVTVSSASTKGPSVFPLAPSSKSTSGGTAALGCLVKDYFPEPVTVSWNSGALTSGVHTFPAVLQSSGLYSLSSVVTVPSSSLGTQTYICNVNHKPSNTKVDKKV[human IgG1 Fc with changes left out here]GGGGSGGGGSGGGGSRNLPVATPDPGMFPCLHHSQNLLRAVSNMLQKARQTLEFYPCTSEEIDHEDITKDKTSTVEACLPLELTKNESCLNSRETSFITNGSCLASRKTSFMMALCLSSIYEDLKMYQVEFKTMNAKLLMDPKRQIFLDQNMLAVIDELMQALNFNSETVPQKSSLEEPDFYKTKIKLCILLHAFRIRAVTIDRVMSYLNAS
light: EIVMTQSPATLSVSPGERATLSCKASQNVVSAVAWYQQKPGQSPRLLIYSASNRYTGIPARFSGSGSGTEFTLTISSLQSEDFAAYYCQQYSNYPWTFGGGTKVEIKRTVAAPSVFIFPPSDEQLKSGTASVVCLLNNFYPREAKVQWKVDNALQSGNSQESVTEQDSKDSTYSLSSTLTLSKADYEKHKVYACEVTHQGLSSPVTKSFNRGEC
B2: BCA330.16, anti-hCAIX hIL-12 fusion protein (hIL-12p40 variant N: W37A, F82A, K217A) (other)
heavy 1: EVRLVESGGGLVKPGGSLRLSCAASGFTFSNYYMSWIRQAPEKRLELVSAINSDGGITYYLDTVKGRFTISRDNAKNSLYLQMNSLRAEDTALFYCARHRSGYFSMDYWGQGTSVTVSS[human IgG1 constant region with changes left out here]GGGGSGGGGSGGGGSIWELKKDVYVVELDAYPDAPGEMVVLTCDTPEEDGITWTLDQSSEVLGSGKTLTIQVKEAGDAGQYTCHKGGEVLSHSLLLLHKKEDGIWSTDILKDQKEPKNKTFLRCEAKNYSGRFTCWWLTTISTDLTFSVKSSRGSSDPQGVTCGAATLSAERVRGDNKEYEYSVECQEDSACPAAEESLPIEVMVDAVHALKYENYTSSFFIRDIIKPDPPKNLQLKPLKNSRQVEVSWEYPDTWSTPHSYFSLTFCVQVQGKSKREKKDRVFTDKTSATVICRKNASISVRAQDRYYSSSWSEWASVPCS
heavy 2: EVRLVESGGGLVKPGGSLRLSCAASGFTFSNYYMSWIRQAPEKRLELVSAINSDGGITYYLDTVKGRFTISRDNAKNSLYLQMNSLRAEDTALFYCARHRSGYFSMDYWGQGTSVTVSSASTKGPSVFPLAPSSKSTSGGTAALGCLVKDYFPEPVTVSWNSGALTSGVHTFPAVLQSSGLYSLSSVVTVPSSSLGTQTYICNVNHKPSNTKVDKKV[human IgG1 Fc with changes left out here]GGGGSGGGGSGGGGSRNLPVATPDPGMFPCLHHSQNLLRAVSNMLQKARQTLEFYPCTSEEIDHEDITKDKTSTVEACLPLELTKNESCLNSRETSFITNGSCLASRKTSFMMALCLSSIYEDLKMYQVEFKTMNAKLLMDPKRQIFLDQNMLAVIDELMQALNFNSETVPQKSSLEEPDFYKTKIKLCILLHAFRIRAVTIDRVMSYLNAS
light: B1 light
B3: BCA310.16, anti-hCAIX hIL-12 fusion protein (hIL-12p40 variant B: Δ23-127, D1 Domain Deleted) (other)
heavy 1: EVRLVESGGGLVKPGGSLRLSCAASGFTFSNYYMSWIRQAPEKRLELVSAINSDGGITYYLDTVKGRFTISRDNAKNSLYLQMNSLRAEDTALFYCARHRSGYFSMDYWGQGTSVTVSS[human IgG1 constant region with changes left out here]GGGGSGGGGSGGGGSFLRCEAKNYSGRFTCWWLTTISTDLTFSVKSSRGSSDPQGVTCGAATLSAERVRGDNKEYEYSVECQEDSACPAAEESLPIEVMVDAVHKLKYENYTSSFFIRDIIKPDPPKNLQLKPLKNSRQVEVSWEYPDTWSTPHSYFSLTFCVQVQGKSKREKKDRVFTDKTSATVICRKNASISVRAQDRYYSSSWSEWASVPCS
heavy 2: EVRLVESGGGLVKPGGSLRLSCAASGFTFSNYYMSWIRQAPEKRLELVSAINSDGGITYYLDTVKGRFTISRDNAKNSLYLQMNSLRAEDTALFYCARHRSGYFSMDYWGQGTSVTVSSASTKGPSVFPLAPSSKSTSGGTAALGCLVKDYFPEPVTVSWNSGALTSGVHTFPAVLQSSGLYSLSSVVTVPSSSLGTQTYICNVNHKPSNTKVDKKV[human IgG1 Fc with changes left out here]GGGGSGGGGSGGGGSRNLPVATPDPGMFPCLHHSQNLLRAVSNMLQKARQTLEFYPCTSEEIDHEDITKDKTSTVEACLPLELTKNESCLNSRETSFITNGSCLASRKTSFMMALCLSSIYEDLKMYQVEFKTMNAKLLMDPKRQIFLDQNMLAVIDELMQALNFNSETVPQKSSLEEPDFYKTKIKLCILLHAFRIRAVTIDRVMSYLNAS
light: B1 light
B4: BCA327.16, anti-hCAIX hIL-12 fusion protein (hIL-12p40 variant K: E81A, F82A, K106A) (other)
heavy 1: EVRLVESGGGLVKPGGSLRLSCAASGFTFSNYYMSWIRQAPEKRLELVSAINSDGGITYYLDTVKGRFTISRDNAKNSLYLQMNSLRAEDTALFYCARHRSGYFSMDYWGQGTSVTVSS[human IgG1 constant region with changes left out here]GGGGSGGGGSGGGGSIWELKKDVYVVELDWYPDAPGEMVVLTCDTPEEDGITWTLDQSSEVLGSGKTLTIQVKAAGDAGQYTCHKGGEVLSHSLLLLHAKEDGIWSTDILKDQKEPKNKTFLRCEAKNYSGRFTCWWLTTISTDLTFSVKSSRGSSDPQGVTCGAATLSAERVRGDNKEYEYSVECQEDSACPAAEESLPIEVMVDAVHKLKYENYTSSFFIRDIIKPDPPKNLQLKPLKNSRQVEVSWEYPDTWSTPHSYFSLTFCVQVQGKSKREKKDRVFTDKTSATVICRKNASISVRAQDRYYSSSWSEWASVPCS
heavy 2: EVRLVESGGGLVKPGGSLRLSCAASGFTFSNYYMSWIRQAPEKRLELVSAINSDGGITYYLDTVKGRFTISRDNAKNSLYLQMNSLRAEDTALFYCARHRSGYFSMDYWGQGTSVTVSSASTKGPSVFPLAPSSKSTSGGTAALGCLVKDYFPEPVTVSWNSGALTSGVHTFPAVLQSSGLYSLSSVVTVPSSSLGTQTYICNVNHKPSNTKVDKKV[human IgG1 Fc with changes left out here]GGGGSGGGGSGGGGSRNLPVATPDPGMFPCLHHSQNLLRAVSNMLQKARQTLEFYPCTSEEIDHEDITKDKTSTVEACLPLELTKNESCLNSRETSFITNGSCLASRKTSFMMALCLSSIYEDLKMYQVEFKTMNAKLLMDPKRQIFLDQNMLAVIDELMQALNFNSETVPQKSSLEEPDFYKTKIKLCILLHAFRIRAVTIDRVMSYLNAS
light: B1 light
B5: BCA329.16, anti-hCAIX hIL-12 fusion protein (hIL-12p40 variant M: P39A, D40A, E81A, F82A) (other)
heavy 1: EVRLVESGGGLVKPGGSLRLSCAASGFTFSNYYMSWIRQAPEKRLELVSAINSDGGITYYLDTVKGRFTISRDNAKNSLYLQMNSLRAEDTALFYCARHRSGYFSMDYWGQGTSVTVSS[human IgG1 constant region with changes left out here]GGGGSGGGGSGGGGSIWELKKDVYVVELDWYAAAPGEMVVLTCDTPEEDGITWTLDQSSEVLGSGKTLTIQVKAAGDAGQYTCHKGGEVLSHSLLLLHKKEDGIWSTDILKDQKEPKNKTFLRCEAKNYSGRFTCWWLTTISTDLTFSVKSSRGSSDPQGVTCGAATLSAERVRGDNKEYEYSVECQEDSACPAAEESLPIEVMVDAVHKLKYENYTSSFFIRDIIKPDPPKNLQLKPLKNSRQVEVSWEYPDTWSTPHSYFSLTFCVQVQGKSKREKKDRVFTDKTSATVICRKNASISVRAQDRYYSSSWSEWASVPCS
heavy 2: EVRLVESGGGLVKPGGSLRLSCAASGFTFSNYYMSWIRQAPEKRLELVSAINSDGGITYYLDTVKGRFTISRDNAKNSLYLQMNSLRAEDTALFYCARHRSGYFSMDYWGQGTSVTVSSASTKGPSVFPLAPSSKSTSGGTAALGCLVKDYFPEPVTVSWNSGALTSGVHTFPAVLQSSGLYSLSSVVTVPSSSLGTQTYICNVNHKPSNTKVDKKV[human IgG1 Fc with changes left out here]GGGGSGGGGSGGGGSRNLPVATPDPGMFPCLHHSQNLLRAVSNMLQKARQTLEFYPCTSEEIDHEDITKDKTSTVEACLPLELTKNESCLNSRETSFITNGSCLASRKTSFMMALCLSSIYEDLKMYQVEFKTMNAKLLMDPKRQIFLDQNMLAVIDELMQALNFNSETVPQKSSLEEPDFYKTKIKLCILLHAFRIRAVTIDRVMSYLNAS
light: B1 light

These binders were tested against human IL-12 receptor (hIL-12R), heterodimer of hIL-12Rβ1 and hIL-12Rβ2 (human, UniProt P42701 24-662; Q99665 24-862) (assay: cell-based or functional assay).

HEK IL-12 Reporter Assay (Ratio of EC50) [ratio]	PSTAT (CD8) flow cytometry - percent reduction at 16.9 nM [%]	Binder
6590	93.9	B1
107	–	B2
22700	98.8	B3
9570	88.2	B4
4690	72.9	B5
